# Results as given in PubChem BioAssay AID1508624 (National Center for Advancing Translational Sciences (NCATS), 2021).
# The whole screen tested about 48,000 compounds, of which about 120 (0.25%) were called active. The inconclusive results got no clear call from the source; some entries with a clear call stand among them for comparison. Calls come from the whole dose curve; as a rule, active = well fitted activation curve with a large enough effect; inconclusive = small, poorly fitted or top-dose-only effect, or another doubt; inactive = no such curve, though single readings can be large or run the other way. A potency beside an inconclusive call is a rough fit, not a confirmed value.
# Experiment: Primary qHTS for Identification of Small Molecule Activators of Huntingtin-Antisense Promoter Activity; note: nearly all actives have a fitted effect of over 55% in size
# Conditions: HEK293 HTT-AS promoter firefly luciferase reporter, 24 h; activity change, positive = activation: at 57.5 µM (top of the series), percent change from vehicle, -100% = no light unless noted
# Description: Assay Provider: Russell L. Margolis M.D.
# Department Neurology, Johns Hopkins University School of Medicine, Baltimore, MD
# Huntington's Disease (HD) is a neurodegenerative disorder caused by a CAG repeat expansion in exon 1 of huntingtin (HTT). While there are currently no disease-modifying treatments for HD, recent efforts have focused on development of nucleotide-based therapeutics to lower HTT expression. As an alternative to siRNA or oligonucleotide methods, we hypothesized that suppression of HTT expression might be accomplished by small molecules that either (1) directly decrease HTT expression by suppressing HTT promoter activity or (2) indirectly decrease HTT expression by increasing the promoter activity of HTT-AS, the gene antisense to HTT that appears to inhibit expression of HTT.
# We developed and employed a high throughput screen for modifiers of HTT and HTT-AS promoter activity using luminescent reporter HEK293 cells; of the 52,041 compounds tested, we identified 898 replicable hits. We used a rigorous stepwise approach to assess compound toxicity and the capacity of the compounds to specifically lower huntingtin protein in 5 different cell lines, including HEK293 cells, HD lymphoblastoid cells, mouse primary neurons, HD iPSCs differentiated into cortical-like neurons, and HD hESCs. We found no compounds which were able to lower huntingtin without lowering cell viability in all assays, though the potential efficacy of a few compounds at non-toxic doses could not be excluded.
# SEQUENCE No. (1, 2, 3, etc.); […] (e.g., Cells, Incubation, Reagent, etc.); VALUE and DESCRIPTION.
# 1; Reagent; 4 uL; 2,500 Hek293 luciferase reporter cells per wells
# 3; Compound; 23 nL; Control inhibitor / compound library
# 5; Reagent; 2.5 uL; Firefly Luc reagent; Dual-Glo Luciferase Reporter Assay System (Promega)
# 6; Time; 10 min; room temperature incubation
# 7; Detection; Luminescence; FLuc
# NOTES (numbers refer to sequence above)
# 1; High-throughput screening, measuring luminescence from a Hek293 luciferase reporter, was performed in 1,536 well white-walled tissue-culture treated plates. 2,500 cells were plated in 4 µL of Opti-MEM per well using a Multidrop Combi Reagent Dispenser (ThermoFisher).
# 2; Assay plates were cultured for 24 hours.
# 3; Control inhibitor (PTC124; final concentration of 50 uM) and compound library (at final concentrations of 460 nM - 57.5 uM) were added to the assay plate using the Kalypsis Pintool Robotic System equipped with 1536 pinheads.
# 4; Cells were then incubated for 24 hours at 37 degrees C prior to luminescence measurements.
# 5; In all cases, luminescence was measured using the Dual-Glo Luciferase Reporter Assay System (Promega) following the manufacturer's instructions.
# 6; Room temperature incubation.
# 7; Luminescence signal was obtained using the PerkinElmer ViewLux plate reader. Results were normalized to vehicle control (0% activity) and zero RLU (-100% activity).
# Potency is the fitted concentration of half-maximal effect; tags give direction and shape of the fitted curve.
SMILES,"activity change, positive = activation",Potency
CCN1C(=O)c2ccccc2S(=O)c2ccc(C(=O)NCc3ccc(Cl)cc3)cc21 (centres undefined),inconclusive: -38.1% [activator],
CC(=O)Nc1c(C)nn(-c2ccccc2)c1N1CCC(C(=O)Nc2ccccc2F)CC1,,"inconclusive: 39.8 µM [activator, single point]"
COc1cccc(CCc2ccccc2OCC(CN(C)C)OC(=O)CCC(=O)O)c1 (centres undefined),inactive: -17.8%,
COc1ccc(Cn2c(CO)cnc2SCc2ccccc2C)cc1,,"inconclusive: 12.6 µM [activator, partial curve]"
Cc1cc(C)c(NC(=O)Cn2c(=O)n(Cc3ccc(C(=O)NCc4ccc5c(c4)OCO5)cc3)c(=O)c3ccccc32)c(C)c1,inactive: -6.34%,
Cc1ccc(CNC(=O)c2ccc(Nc3nc4ccccc4n4nnnc34)cc2)cc1,,"inconclusive: 17.8 µM [activator, single point]"
Cc1ccc(NC(=O)c2oc3c(c2C)-c2[nH]ncc2CC3)c(Cl)c1,,active: 2.24 µM
Cc1cc(C)cc(NS(=O)(=O)c2ccc3[nH]cc(C(=O)NCCc4ccccc4)c(=O)c3c2)c1,inactive: -26.3%,
O=c1[nH]sc2cc(Cl)ccc12,inconclusive: -45.6% [activator],
Cc1ccc(C(=O)COC(=O)c2cc(-c3cccs3)nc3ccccc23)cc1,,"inconclusive: 5.62 µM [activator, partial curve]"
Cc1cc(C)c2nc(N3CCCC(C(=O)NCc4ccccc4F)C3)sc2c1 (centres undefined),,"inconclusive: 5.01 µM [activator, full curve]"
COc1ccc(OC)c(NC(=O)c2ccc3c(SCC(=O)O)c4c(nc3c2)CCCC4)c1,inconclusive: -66.3% [activator],
O=C(/C=C/c1ccco1)Nc1ccc(F)cc1,,"inconclusive: 2.24 µM [activator, full curve]"
CCc1nn2c(-c3ccco3)ccnc2c1-c1ccc(F)cc1,,"inconclusive: 22.4 µM [activator, single point]"
O=C(Nc1cc(-c2nc3ccccc3o2)ccc1Cl)c1cccc2c(Cl)cccc12,,"inconclusive: 11.2 µM [activator, partial curve]"
COc1ccc(C(=O)Nc2onc3c2CCCC3)cc1,,"inconclusive: 0.178 µM [activator, full curve, poor fit]"
C#Cc1cccc(Nc2ncnc3cc(OC)c(OCCCCCCC(=O)NO)cc23)c1,,"inconclusive: 7.69 µM [activator, full curve]"
Cc1ccccc1NC(=O)c1cc2ccccc2o1,,"inconclusive: 39.8 µM [activator, single point]"
Cc1ccc(Cn2cnc3nc4c(cc3c2=O)CCCC4)cc1,,"inconclusive: 14.1 µM [activator, partial curve]"
